# Source: the RNAGym collection of RNA variant scans (doi:10.1073/pnas.2313332121)
# Variants at the background level are over-represented here.
# B1: TPR 5TU (parent)
# chain: GGAUCUUCUCGAUCUAACAAAAAAGACAAAUCUGCCACAAAGCUUGAGAGCAUCUUCGGAUGCAGAGGCGGCAGCCUUCGGUGGCGCGAUAGCGCCAACGUUCUCAACUAUGACACGCAAAACGCGUGCUCCGUUGAAUGGAGUUUAUCAUG
# Variants of: B1
# Assay: polymerase ribozyme fitness, log enrichment relative to wild type (log ratio); higher = more active; in vitro selection for triplet polymerase activity
# Method in brief: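 For each subunit of a heterodimeric triplet polymerase ribozyme, a mutant library was built by PCR and transcribed, then taken through a single in vitro selection round in triplicate. Selection involved annealing to a biotinylated primer, the partner subunit and triplets, incubation frozen at −7 °C, gel excision of extended constructs, capture on streptavidin beads and RT-PCR. Genotypes were retained after Illumina sequencing of inputs and outputs only with ≥10 input reads and ≥1 read in each output. Fitness is defined as the logarithm of a genotype's enrichment relative to wild-type enrichment, using inverse-variance-weighted averages across replicates, with the logarithm taken to base 2.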
row,Variant,polymerase ribozyme fitness (log ratio)
1,GGAUCUUCUCGAUGUAACAAAAAAGACAAAUCUGCCACAAAGCUUGAGAGCAUCUUCGGAUGCAGAGGCGGCAGCCUUCGGUGGCGCGAUAGCGCCAACGUUCUCAACUAUGACACGCAAAACGCGUGCUCCGUCGAAUGGAGUUUAUCAUG,≤ -4.2
2,GGAUCUUCUCGAUGUAACAAAAAAGACAAAUCUGCCACAAAGCUUGAGAGCAUCUUCGGAUGCAGAGGCGGCAGCCUUCGGUGGCGCGAUAGCGCCAACGUUCUCAACUAUGACACGCAAAACGCGUGCUCCGUUGAAGGGAGGUUAUCAUG,-1.38
3,GGAUCUUCUCGAUUUCACAAAAAAGACAAAUCUGCCACAAAGCUUGAGAGUGUCUUCGGAUGCAGAGGCGGCAGCCUUCGGUGGCGCGAUAGUGCCAACGUUCUCAACUAUGACAAGCAACACGCGUGCUCCGUUGAAUGGAGUUUAUCAUG,-1.81
4,GGAUCUUCUCGAUUUCACAAAAAAGACAAAUCUGCCACAAAGCUUGAGAGCAUCUUCGGAUGCAGAGGCGGCAGCCUUCGGUGGUGCGAUAGCGCCAACGUUCUCCACUAUGACACGCAAAACGCGUGCUCCGUUGAAUGAAGUUUAUAAUG,≤ -4.2
5,GGAUCUUCUCGAUUUUACAAAAAAGACAAAUCUGCCACAAAGCUUGAGCACAACUUCGGAUGCAGAGGCGGUAGCCGUCGGUGGCGCGAUAGCGCCAAGAUUCUCAACUAUGACACGGAAAACGCGUGCUCCGUUGAAUGGAGUUUAUCAUG,≤ -4.2
6,GGAUCUUCUCGAUUUUACAAAAAAGACAAAUCUGCCACAAAGCUUGAGAGCAUCUUCGGAUGCAGAGGCGGCUGCCUUCGGUGGCGUGAUAGCGCCAACGUUCUCAACUAUGAUACGCAAAACGCGUGCUCCGUUGAAUGGAGUUUAUCAUG,≤ -4.2
7,GGAUCUUCUCGAUUUACCAAAAAAGACAAAUCUGCCACAAAGCUUGAGAGCAUUUUCGGAUGCAGAGGCGGCAGCCUUCGGUGGCGCGAUAGCGCCAACGUUCUCAACUAUGACACGCAAAACGCGUGCUCCGUGGAAUGGAGUUUAUCAUG,≤ -4.2
8,GGAUCUUCUCGAUUUAGCAAAAAAGACAAAUCUGCGACAAAGCUUGAGAGCAUCUUCGGAUGCAGAGGCGGCAGCCUUCGGUGGCGCGAUAGCGCCAACGUUCUCAACUAUGACACGCAAAACGCAUGCUCCGUUGAAUGGAGUUUAUCAUG,≤ -4.2
9,GGAUCUUCUCGAUUUAACCAAAAAGACUCAUCUGCCACAAAGCUUGAGAGCAUCUUCGGAUGCAGAGGCGGCAGCCUUCGGUGGCCCGAUAGCGCUAACGUUCUCAACUAUGACACGGAAAACGCGUGCUCCGUUGAAUGGAGUUUAUCAUG,≤ -4.2
10,GGAUCUUCUCGAUUUAACGAAAAAGACAAAUCUGCCAUAAAGCUUGAGAGCAUCUUCGGAAGCAGAGGCGGCAGCAUUCGGUGGAGCGAUAGCGCCAACGUUCUCAACUAUGACACGCAAAACGCGUGCUCCGUUGAACGGAGUUUAUCCUG,≤ -4.2
11,GGAUCUUCUCGAUUUAACUAAAAAGUCAAAUCUGCCACAAAGCUUGAGAGCAUCUCCGGAUGCAGAGGCGACAGCGUUCGGUGCGGCGAUAGCGCCAACGUUCUCAACUAUGACACGCAAAACGCGUGCUCCGUUGAAUGGAGUUUAUCAUG,≤ -4.2
12,GGAUCUUCUCGAUUUAACUAAAAAGACAAAUCUGCCACAUAGCUUGAGAGCAUCUUCGGAUGCAGAAGCGGCAGCCUUCGGUGGCGCGAUAGCGCCAACGUUCUGAACUAUGACACGCAAAACGCGUGCUCCGUUGAAUGGAGUUUAUCAUG,≤ -4.2
13,GGAUCUUCUCGAUUUAACUAAAAAGACAAAUCUGCCACAAAGCUUGAGAGCUUAUUCGGAUGCAGAGGCGGCGGCCUUCGGUGGCGCGAUAGGGCCAACGUUCUCAACUAUGACACGCAAAACGCGUGCUCCGGUGAAUGGAGUUUAGCAUG,≤ -4.2
14,GGAUCUUCUCGAUUUAACACAAAAGACAAAUCUGCCACCAAGCUUGAGAACAUCUUCGGAUGCAGAGGCGGCAGCCUUCGGUCGCGCGAUAGCGCCAACGUUCUCAACUAUGACAUGCAAAACGCGUACUCCGUUGAAUGGAGUUUAUCAUG,≤ -4.2
15,GGAUCUUCUCGAUUUAACACAAAAGACAAAUCUGCCACGAAGCUUGAGAGCGUCUACGGAUGCAGAGGCGGCAGCCUUCGGUGGCGCGAUAGCGCAAACGUUCUCAACUAUGACACGCAAUACGCGUGCUCCGUUGAAUGGAGUUUAUCAUG,-4
16,GGAUCUUCUCGAUUUAACACAAAAGACAAAUCUGCCACAAAGUUUGAGAGCAACUUCGGUUGCAGAGGCGGCAGCCUUCGGUGGCGGGAUAGCGCCAACGUUGUCAACUAUGACACGCAAAACGCGUGCUCCGUUGAAUGAAGUUUAUCAUG,≤ -4.2
17,GGAUCUUCUCGAUUUAACAGAAAAGACAAAUCUGCCACAAAGCUUGAGAGCAUCUUCGGAUGCAGAGGGGGCAGCCUUCGGUGGCGAGAUAGCGCCAACGUUCUCAACUAUGACACGCAAAACGCGUCCUCCGUUGAAUGGAGUUUAUCAUG,≤ -4.2
18,GGAUCUUCUCGAUUUAACAACAAAGACAAAUCUGCCACAAAGCUUGAGCGCAUCUUCGGAUGCAGAGGCGGCAGCCUUCGGUGGCGCGAUAGCGUCAACGUUCUCAGCUAUGACACGCAAAACGCGUGCUCCGUUGAAUAGAGUUUAUCAUG,≤ -4.2
19,GGAUCUUCUCGAUUUAACAACAAAGAUAAAUCUGCAACAAAGCUUGAGAGCAUCUUCGGAUUCAGAGGCGGCAGCCUUCCGUGGCACGAUAGCGCCAACGUUCUCAACUAUGACACGCAAAACGCGUGCUCCGUUGCAUGGAGUUUAUCAUG,-3.96
